Source: the supplement of paper PMC10441789
Some of the results follow. Antibody binding of pooled human sera (four to six donors per pool; dilution not stated) to peptides of the Trypanosoma cruzi antigen TSSA on microarrays. Quantile-normalised fluorescence in arbitrary units, mean of duplicate arrays; higher = more binding. No active / inactive call. The uninfected pools are read here as the healthy donors of the same country. The strongest signals lie near the top of the scale (about 60,000).

What was measured:
Assay in all cases: antibody binding signal (normalised fluorescence) (arbitrary fluorescence units); higher = stronger serum antibody binding to peptide
[1] = tested on: pooled sera of chronic Chagas disease patients, Argentina
Method: (§1)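 Microarray of 15-residue peptides over residues 30-55 of Trypanosoma cruzi TSSAII, each with 1 to 10 substitutions at naturally variable positions, probed with one serum pool per country.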

[2] = tested on: pooled sera of chronic Chagas disease patients, Bolivia
Method: as §1

[3] = tested on: pooled sera of chronic Chagas disease patients, Brazil
Method: as §1

[4] = tested on: pooled sera of chronic Chagas disease patients, Colombia
Method: as §1

[5] = tested on: pooled sera of chronic Chagas disease patients, Mexico
Method: as §1

[6] = tested on: pooled sera of chronic Chagas disease patients, USA
Method: as §1

[7] = tested on: pooled sera of uninfected people, Argentina
Method: as §1

[8] = tested on: pooled sera of uninfected people, Bolivia
Method: as §1

[9] = tested on: pooled sera of uninfected people, Brazil
Method: as §1

[10] = tested on: pooled sera of uninfected people, Colombia
Method: as §1

[11] = tested on: pooled sera of uninfected people, Mexico
Method: as §1

[12] = tested on: pooled sera of uninfected people, USA
Method: as §1

Sequence	antibody binding signal [1]	antibody binding signal [2]	antibody binding signal [3]	antibody binding signal [4]	antibody binding signal [5]	antibody binding signal [6]	antibody binding signal [7]	antibody binding signal [8]	antibody binding signal [9]	antibody binding signal [10]	antibody binding signal [11]	antibody binding signal [12]
ISTPPSGTEKKPAAG	49600	27800	43600	834	26000	11900	1290	1150	447	189	456	1220
DNKTATGGAPSPSGA	607	476	643	808	379	586	336	240	662	241	505	199
GTENKTATGETPSQP	28800	8180	29400	986	1020	7420	126	332	361	172	258	148
TISTPPSGKENKAAA	17100	3150	7770	773	3570	2820	4110	1280	278	814	155	1070
GTDNKTAAGEAPSPS	194	490	28100	222	252	7680	186	617	1410	158	113	130
EKKTATGEAPSPPGA	10700	15400	12800	365	450	19600	229	865	154	101	200	780
GKDKKTATGEAPSQS	6310	2990	7120	2410	2300	14800	155	76	100	89.7	81.1	81.1
TPPSGTDNKPAAGET	29400	43600	41300	3370	11800	22600	2150	814	547	603	935	335
GTDNKPATGEAPSQS	47000	48200	50100	1520	259	47200	928	1010	500	175	419	146
STPPSGKEKKPATGG	21200	780	3440	1100	28800	729	580	430	124	365	109	430
GKENKPATGETPSQS	38500	17600	35700	5840	8300	31700	853	715	344	150	2040	146
STPPSGKDKKAATGE	25000	1190	4630	284	45700	1780	458	464	111	268	103	111
KEKKAAAGEAPSQSG	254	1120	996	226	163	7700	100	108	96.4	91.1	92.7	102
SSTPPSGKENKTAAG	37300	12800	10900	502	7750	2720	1970	1100	175	541	311	396
EKKPATGEAPSPPGA	45400	38000	47400	395	316	43800	936	978	314	260	306	784
TISTPPSGTEKKPAT	45500	17400	44700	809	36200	8490	1110	757	587	246	242	988
SGTDNKPAAGGAPSQ	2760	2020	45900	5000	427	573	199	844	394	283	440	276
DNKTAAGGTPSQSGA	1800	334	593	5630	483	1470	396	426	1740	246	2490	217
SGTDNKPAAGGAPSP	3490	1680	44200	3920	359	1060	153	601	364	289	398	247
DKKPAAGGTPSQSGA	623	212	296	5050	304	1340	230	163	1670	193	140	307
KDNKTAAGGAPSPPG	509	226	340	3060	271	693	266	115	153	178	99.2	179
KDKKAAAGETPSQPG	259	248	19200	203	165	541	107	113	102	148	83.4	91.6
PPSGKEKKAATGEAP	20900	14400	13300	2410	3150	18500	656	589	113	350	114	179
GTENKPATGEAPSPP	46000	48800	48200	954	1760	43700	1100	1320	475	145	228	183
TDNKAAAGETPSPPG	202	173	11100	180	209	986	104	394	145	83.6	131	1290

Sequence	antibody binding signal [1]	antibody binding signal [2]	antibody binding signal [3]	antibody binding signal [4]	antibody binding signal [5]	antibody binding signal [6]	antibody binding signal [7]	antibody binding signal [8]	antibody binding signal [9]	antibody binding signal [10]	antibody binding signal [11]	antibody binding signal [12]
GTDKKPATGETPSQP	32000	17900	42800	5980	555	23600	247	455	451	238	2080	162
DKKTATGGAPSQSGA	1070	310	677	2290	911	662	328	359	127	123	457	157
PSGKDNKTAAGETPS	4110	1830	5770	7910	6460	5660	369	416	244	281	160	179
EKKAAAGETPSPPGA	1000	235	1490	421	306	4520	148	1020	106	132	215	1390
SGKENKAAAGETPSQ	5320	2670	22800	8930	6480	18900	9510	3890	106	685	559	159
SGTENKPAAGGTPSQ	49100	17600	33300	1340	1160	7140	611	1710	1010	477	371	150
NKTATGGTPSPPGAS	444	863	2220	426	392	732	759	1120	467	849	224	1620
TDKKAAAGETPSQPG	1770	2760	32400	323	217	2630	122	333	175	819	211	159
GTDKKTAAGGAPSQS	181	310	183	5490	480	417	143	221	122	153	141	112
GTDKKAATGGAPSPP	618	248	512	2080	1150	1270	440	566	123	590	221	122
KDNKAAAGETPSQPG	1750	821	32400	239	227	1480	358	1800	181	234	115	138
KAAAGEAPSQSGASS	646	9860	15600	310	212	6650	270	692	107	126	376	179
TPPSGKDNKAATGGT	651	322	1800	393	18300	2980	366	609	559	197	87.2	187
TPPSGKENKTATGGT	13900	1340	3060	925	2790	3340	2110	1300	393	618	317	243
KENKAAAGEAPSQSG	310	5720	21500	165	176	11600	107	143	86.8	119	91.5	94.9
SGTDKKPATGEAPSQ	47400	45400	49700	4550	353	41400	768	596	306	438	2840	208
KDNKTATGGTPSPPG	427	301	274	1810	333	494	298	159	197	223	113	135
PPSGKEKKAAAGETP	1350	623	2550	1950	3930	3460	399	564	83.5	315	96.8	133
SGKDNKPATGEAPSQ	46300	50600	51300	506	401	44400	1160	1150	331	314	420	162
KDNKAATGEAPSPPG	23000	13400	33800	196	218	25200	358	1050	186	158	77.4	97
SGKENKAAAGEAPSQ	4200	6300	28200	7350	5550	19400	8940	3370	107	452	398	149
EKKPAAGETPSQPGA	1070	1510	34900	400	286	3230	139	1320	256	628	275	866
TPPSGTEKKAATGGA	30900	1560	24000	1070	4210	1810	989	726	193	652	104	500
PPSGTEKKTAAGEAP	22800	10400	16600	891	1640	4850	901	344	514	711	173	263
GTDNKPAAGETPSQS	2850	510	44400	1430	331	3480	133	581	446	213	424	109
